Measured values published in PubChem BioAssay AID485344 (National Center for Advancing Translational Sciences (NCATS), 2010).
About 6,900 (2%) of roughly 340,000 compounds were called active. Rule as the data show it: active = inhibition above about 30%; inactive = below that, where a call was filed. The entries are a selection whose mix differs from that of the whole data set. Where no call is shown, the source filed none.

These compounds were tested against D(2) dopamine receptor (Homo sapiens) (UniProt P14416) (assay: HTS Assay for Allosteric Antagonists of the Human D2 Dopamine Receptor: Primary Screen for Antagonists). Settings: HEK293 TREx D2 cells, calcium flux, dopamine EC80; at 10 µM; stronger effect = higher value.
Sequence of UniProt P14416 (P14416 whole entry, looked up): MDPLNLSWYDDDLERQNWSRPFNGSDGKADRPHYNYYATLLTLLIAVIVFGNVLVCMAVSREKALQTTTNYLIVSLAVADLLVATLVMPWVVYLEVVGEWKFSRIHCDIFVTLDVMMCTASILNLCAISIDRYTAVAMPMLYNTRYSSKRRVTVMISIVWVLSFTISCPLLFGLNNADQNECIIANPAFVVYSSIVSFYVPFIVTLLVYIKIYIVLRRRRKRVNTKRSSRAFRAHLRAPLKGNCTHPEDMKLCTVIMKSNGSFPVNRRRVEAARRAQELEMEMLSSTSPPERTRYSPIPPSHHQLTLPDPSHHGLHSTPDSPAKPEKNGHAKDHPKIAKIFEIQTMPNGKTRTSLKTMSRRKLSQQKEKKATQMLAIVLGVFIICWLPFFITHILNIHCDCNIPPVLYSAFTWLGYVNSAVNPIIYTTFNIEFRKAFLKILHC
Method in brief: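 Cells plated overnight at 30 C with tetracycline; no-wash calcium dye, 30–90 min RT; 10 s baseline; compound pinned; 180 s read; EC80 dopamine added; another 180 s read.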
Also: 0% is about no effect.

Row | Compound | inhibition
1 | COc1ccccc1N1CCN(C(=O)c2cc(-c3ccc(F)cc3)on2)CC1 | 4.6%
2 | CC(=O)c1ccc(N2C(=O)N(CC(=O)c3ccc(C)cc3)c3ccccc3S2(=O)=O)cc1 | 14%
3 | Cc1ccc(NC(=O)C(=O)c2cc(C)n(-c3ccc(F)cc3)c2C)cc1C | 20.7%
4 | CCOc1ccc(NC(=O)C2CCCN(S(=O)(=O)c3ccc4[nH]c(=O)ccc4c3)C2)cc1 (centres undefined) | 9.3%
5 | COc1cccc(-n2ccn(CC(=O)c3ccc(F)cc3)c(=O)c2=O)c1 | -18.5%
6 | COc1ccccc1N1CCN(C(=O)CSc2nc3ccccc3nc2Cc2ccccc2)CC1 | 12.7%
7 | O=C(Cc1noc2ccccc12)NNC(=S)Nc1ccc(Cl)cc1 | active: 48.4%
8 | Cc1ccc(CSC2=Nc3ccccc3C3=NC(CC(=O)NC4CCCCC4)C(=O)N23)cc1 (centres undefined) | -14.1%
9 | COc1ccc(CNC(=O)c2cc(Nc3ccc(C)cc3C)nc3ccccc23)cc1 | -1.29%
10 | CCCN(CCC)S(=O)(=O)c1ccc2c(c1)N(CC(=O)NC(C)c1ccccc1)C(=O)CS2 (centres undefined) | -12.1%
11 | CCOc1ccc(NC(=O)c2oc3ccccc3c2NC(=O)c2c(F)cccc2F)cc1 | -7.24%
12 | Cc1ccc2nc(CNC(=O)c3ccccc3)[nH]c2c1 | -7.22%
13 | Cc1cccc(-c2noc(CSc3nc(-c4ccc(F)cc4)cc(=O)[nH]3)n2)c1 | 7.52%
14 | COc1ccc(CCNC(=O)C(=O)NCC(c2ccc3c(c2)OCO3)N2CCOCC2)cc1OC (centres undefined) | 8.39%
15 | Cc1cccn2c(=O)c(C(=O)NCCc3ccccc3)c(O)nc12 | 11.6%
16 | O=C(Nc1c(C(=O)N2CCN(c3ccccc3)CC2)oc2ccccc12)c1ccco1 | 23.2%
17 | CC(C)C(=O)NCC(c1ccc2c(c1)OCO2)N1CCN(c2ccccc2)CC1 (centres undefined) | -15.4%
18 | Cc1c(C(=O)NCCc2ccc(Cl)cc2)sc2nc3n(c(=O)c12)CCCC3 | -18.6%
19 | O=C(Nc1ccc(F)cc1)C1(S(=O)(=O)c2ccc(Cl)cc2)CC1 | active: 36.9%
20 | Cc1ccccc1CN1c2ccccc2-c2nc(SCC(=O)NCc3ccccc3)ncc2S1(=O)=O | 3.34%
21 | CCC(C)c1ccc(S(=O)(=O)N2CCN(CC(O)COCC3CCCO3)CC2)cc1 (centres undefined) | active: 33.2%
22 | CCOCCCN(Cc1ccco1)S(=O)(=O)c1cc2c(cc1C)NC(=O)CO2 | -0.535%
23 | COc1ccc(-n2ncc(C(=O)Nc3cccc(C(F)(F)F)c3)c2C2CCN(C(=O)OC(C)(C)C)CC2)cc1 | -1.2%
24 | OC(CNCc1ccc(Cl)cc1)COc1ccccc1 (centres undefined) | active: 49%

Row | Compound | inhibition
25 | Cc1ccc(C2=Nc3ccccc3N(CC(=O)NCc3ccccc3Cl)C(=O)C2)cc1C | 8.24%
26 | COc1ccc(N2Cc3cccc(C(=O)Nc4ccc(F)cc4)c3C2=O)cc1 | 4.85%
27 | COc1ccc(C)cc1NS(=O)(=O)c1cc2c3c(c1)CC(=O)N3CCC2 | 20.4%
28 | COc1ccc(NC(=O)CSc2nc3nc(C)c(Cc4ccccc4Cl)c(C)n3n2)cc1OC | 10.6%
29 | CCn1c(=N)c(C(=O)NC2CCCCC2)cc2c(=O)n3cc(C)ccc3nc21 | 3.07%
30 | COc1ccc(-n2c(=O)c3ccccc3n(CC(=O)NCCc3ccc(OC)c(OC)c3)c2=O)cc1 | 1.6%
31 | Cc1ccccc1CCNC(=O)c1cc2cc(S(=O)(=O)N3CCCCC3)ccc2n1C | -15.4%
32 | COc1ccc(Cl)cc1NC(=O)CCCN1C(=O)C(c2ccccc2)Oc2cccnc21 (centres undefined) | -7.44%
33 | COc1ccc(NC(=O)c2cc3c(=O)n(Cc4cccnc4)ccc3nc2C)cc1OC | 2.55%
34 | COc1cc2c(cc1OC)C(COc1cc(C)cc(C)c1)N(C(=O)COc1ccccc1)CC2 (centres undefined) | -15.4%
35 | CCN(CC)c1ccc(NC(=O)c2sc3nc4c(cc3c2N)CN(C)CC4)cc1 | -4.58%
36 | CCn1c(C(=O)N2CCCC(C(=O)N3CCN(c4cc(C)ccc4C)CC3)C2)cc2sccc21 (centres undefined) | -2.73%
37 | CN(C(=O)CCS(=O)(=O)c1cc2c(cc1Cl)NC(=O)CO2)C1CCCCC1 | 11.2%
38 | Cc1ccc(NC(=O)C2CCC(N3C(=O)C4CCCCC4C3=O)CC2)cc1 (centres undefined) | active: 42.8%
39 | Cc1nncn1-c1ccc(C(=O)Nc2cc(F)ccc2F)cc1 | -3.52%
40 | CCCCN1CCCC1CNC(=O)c1cc(C#N)c2ccccc2c1OC (centres undefined) | active: 84.4%
41 | Cc1ccc(CCNC(=O)CCS(=O)(=O)c2cc3c(cc2C)NC(=O)CO3)cc1 | active: 42.6%
42 | O=C1CN(C(=O)c2ccc(S(=O)(=O)N3CCCC3)cc2)C(c2ccccc2)c2cc(Br)ccc2N1 (centres undefined) | 0.829%
43 | CCOc1ccc(-c2nnc(SCC(=O)NCc3ccccc3)o2)cc1 | -3.5%
44 | Cc1ccc(NC(=O)CN2CCSc3ccc(S(=O)(=O)N4CCCC4)cc32)cc1C | -14.3%
45 | CC(C)(C)C(=O)NC1(C(F)(F)F)C(=O)Nc2c1c(=O)[nH]c(=O)n2-c1ccccc1 (centres undefined) | -13.4%
46 | Cc1nnc(N2CCC(C(=O)NCCc3ccccc3)CC2)c2nn(-c3ccc(Cl)cc3)c(C)c12 | 12.5%
47 | COc1cc(OC)c(NS(=O)(=O)c2cc(-c3cnc(C4CC4)o3)ccc2C)cc1Cl | -12.4%
48 | CCOc1ccc(-n2nc3cc(C)c(NC(=O)c4cc(OCC)c(OCC)c(OCC)c4)cc3n2)cc1 | -23.5%

Row | Compound | inhibition
49 | Cc1cc2c(cc1S(=O)(=O)CCC(=O)NCCc1ccccc1)OCC(=O)N2 | -3.35%
50 | CC(C)C(c1nnnn1Cc1ccc(F)cc1)N1CCN(C2CCCC2)CC1 (centres undefined) | active: 55.9%
51 | CCC1CN(C(=O)Nc2ccc(C)c(F)c2)c2ccccc2S1 (centres undefined) | -2.76%
52 | COc1ccc(-c2cn3cccnc3n2)cc1NC(=O)c1cc(C)cc(C)c1 | -4.83%
53 | Cc1cc(Cl)ccc1OCC(=O)N(Cc1ccco1)Cc1ccco1 | -24.2%
54 | Cc1ccc(-n2ncc(C(=O)N3CCN(c4ccc(Cl)cc4)CC3)c2C2CCN(C(=O)OC(C)(C)C)CC2)c(C)c1 | 10.4%
55 | COc1ccc(-c2nnc(C3CCN(S(=O)(=O)c4ccc(C)c(C)c4)CC3)o2)cc1 | -5.82%
56 | COc1ccc(CCNC(=O)CCc2c(C)c3cc4c(C)coc4c(C)c3oc2=O)cc1OC | 15.5%
57 | CC(O)CNc1nc2c(c(=O)n(Cc3ccc(Cl)cc3)c(=O)n2C)n1C (centres undefined) | -16.5%
58 | CCOC(=O)c1ccc(NC(=O)c2ccc(=O)n(Cc3cccc(C)c3)c2)cc1 | 9.76%
59 | CCOc1ccc(-c2cc(-c3nc(-c4ccc(OC)c(OC)c4)no3)[nH]n2)cc1 | -4.14%
60 | Cc1ccccc1CSc1ncc(CO)n1Cc1ccc(F)cc1 | 5.28%
61 | COc1ccc(Cc2nc3ccccc3n2Cc2ccccc2F)cc1 | 10.7%
62 | OC(COc1ccccc1Cl)CN1CCN(CC(O)COc2ccccc2Cl)CC1 (centres undefined) | active: 70.2%
63 | CCN(C(=O)Cn1cnc2sc(C)c(S(=O)(=O)N3CCN(c4ncccn4)CC3)c2c1=O)c1ccccc1F | 10.7%
64 | COC(=O)Cn1c(CN2CCN(c3ccc(F)cc3)CC2)nc2c1c(=O)n(C)c(=O)n2C | active: 30.4%
65 | CCC(C)NC(=O)C1=CC(c2ccc3c(c2)OCO3)=NS(=O)(=O)N1C (centres undefined) | 14%
66 | COC(=O)c1cc(NC(=O)Cn2nc(-c3ccc(C)c(C)c3)ccc2=O)cc(C(=O)OC)c1 | 8.62%
67 | CC(C)(C)c1ccc(C(=O)N2CCCCC2CCN2CCCCC2)cc1 (centres undefined) | -25.6%
68 | COc1cccc2c1Oc1ncccc1N(C(=O)CCC(=O)NCc1ccccc1Cl)C2 | 8.16%
69 | O=C(CN1C(=O)COc2ccc(S(=O)(=O)Nc3ccccc3)cc21)Nc1cccc(Cl)c1 | 7.94%
70 | COC(=O)c1ccc(Cn2nnc3c(=O)[nH]c(C4CCCN(S(=O)(=O)c5cccc(Cl)c5)C4)nc32)cc1 (centres undefined) | 8.77%
71 | COc1ccc2c(c1)cc1c(=O)n(CC(=O)NCCCc3ccccc3)nc(C)n12 | 4.82%
72 | COc1cccc(CNCc2cccc(Br)c2)c1OC | active: 35.7%

Row | Compound | inhibition
73 | O=C(Nc1ccc(Br)cc1F)N1CCC2(CC1)Oc1ccccc1C(=O)N2Cc1ccccc1F | 11.5%
74 | COc1ccc(N2CCN(c3nc4ccc(C)cc4n4nnnc34)CC2)cc1 | 5.34%
75 | COc1ccc2occ(CC(=O)Nc3ccc(S(=O)(=O)Nc4nc(C)cc(C)n4)cc3)c2c1 | -8.16%
76 | COc1ccc(C2C(C(=O)Nc3ccc(C)cc3C)=C(C)Nc3nc4ccccc4n32)c(OC)c1 (centres undefined) | 3.13%
77 | O=C1CSC2(C(=O)N(Cc3ccccc3)c3ccccc32)N1c1ccc(Cl)cc1 (centres undefined) | -2.53%
78 | CSc1cccc(NS(=O)(=O)c2cn(C)c(C)n2)c1 | -13.4%
79 | Cn1cnc(S(=O)(=O)N2CCC(C(=O)N3CCN(c4ccccc4F)CC3)CC2)c1 | 11.3%
80 | CCOc1ccc(NC(=O)c2cc(=O)c3ccc(C)c(C)c3o2)cc1 | -12%
81 | Cc1cc(C)cc(NS(=O)(=O)c2ccc3[nH]cc(C(=O)NCc4ccccc4Cl)c(=O)c3c2)c1 | 4.53%
82 | Cc1ccc(-c2nc(Cn3c(=O)cc(-c4ccccc4)c4c(C)nn(C)c43)c(C)o2)cc1 | 21.8%
83 | COc1cc(NC(=O)Cn2c(=O)n(Cc3ccco3)c(=O)c3oc4ccccc4c32)cc(OC)c1 | -2.13%
84 | O=C(CSc1nnc(-c2ccc([N+](=O)[O-])cc2)o1)Nc1ccccc1 | -21.5%
85 | CN(C)S(=O)(=O)c1cccc(C(=O)Nc2ccccc2)c1 | active: 47%
86 | Cc1ccc(OCCn2nnc3sc4c(c3c2=O)CCC(C)C4)cc1 (centres undefined) | 16.9%
87 | CN(C1CCCCC1)S(=O)(=O)c1ccc2c(c1)c(=O)c(C(=O)N1CCN(c3ccccc3F)CC1)cn2C | 2.28%
88 | CCc1c(-c2ccccc2)nc2ccccc2c1C(=O)NCc1ccc(C)cc1 | 20.2%
89 | CCOc1ccc(C(=O)N2CCC(c3noc(-c4ccc(S(=O)(=O)N5CCCC5)cc4)n3)CC2)cc1 | 9.99%
90 | CCC(=O)Nc1nnc(S(=O)(=O)N2CCc3ccccc32)s1 | 18.6%
91 | CCOC(=O)C1(CCOc2ccccc2)CCN(CCCn2cccn2)CC1 | active: 76.8%
92 | O=[N+]([O-])c1ccccc1/C=C/CN1CCCCC1 | active: 36.4%
93 | COc1ccc(C2Nc3ccccc3C(=O)N2c2ccccc2)cc1CN1CCOCC1 (centres undefined) | active: 30.1%
94 | COC(=O)c1cc2occc2n1Cc1nc(-c2ccc(C)cc2)oc1C | -7.1%
